Laboratory results as given in PubChem BioAssay AID504339 (National Center for Advancing Translational Sciences (NCATS), 2011).
Several values for one entry are separate records, joined by “and”; a condition that tells them apart may be missing. Equal entries are not always repeated. Hit rate of the full screen: of about 390,000 compounds, about 17,000 (4.4%) were called active. Inconclusive means that the source gave no clear call. Such entries were picked first, then a sample of the others. Calls come from the whole dose curve; as a rule, active = well fitted inhibition curve with a large enough effect; inconclusive = small, poorly fitted or top-dose-only effect; inactive = no such curve, though single readings can be large or run the other way. Where the call is inconclusive, the potency comes from a doubtful curve fit.

The molecules below were run against Lysine-specific demethylase 4A (Homo sapiens) (UniProt O75164) (assay: qHTS Assay for Inhibitors of JMJD2A-Tudor Domain). Conditions: AlphaScreen JMJD2A-Tudor / H3K4me3 peptide binding; activity change, negative = inhibition: at 114 µM (top of the series).
Chain of UniProt O75164 (O75164 whole entry, looked up, the tested form may be a part): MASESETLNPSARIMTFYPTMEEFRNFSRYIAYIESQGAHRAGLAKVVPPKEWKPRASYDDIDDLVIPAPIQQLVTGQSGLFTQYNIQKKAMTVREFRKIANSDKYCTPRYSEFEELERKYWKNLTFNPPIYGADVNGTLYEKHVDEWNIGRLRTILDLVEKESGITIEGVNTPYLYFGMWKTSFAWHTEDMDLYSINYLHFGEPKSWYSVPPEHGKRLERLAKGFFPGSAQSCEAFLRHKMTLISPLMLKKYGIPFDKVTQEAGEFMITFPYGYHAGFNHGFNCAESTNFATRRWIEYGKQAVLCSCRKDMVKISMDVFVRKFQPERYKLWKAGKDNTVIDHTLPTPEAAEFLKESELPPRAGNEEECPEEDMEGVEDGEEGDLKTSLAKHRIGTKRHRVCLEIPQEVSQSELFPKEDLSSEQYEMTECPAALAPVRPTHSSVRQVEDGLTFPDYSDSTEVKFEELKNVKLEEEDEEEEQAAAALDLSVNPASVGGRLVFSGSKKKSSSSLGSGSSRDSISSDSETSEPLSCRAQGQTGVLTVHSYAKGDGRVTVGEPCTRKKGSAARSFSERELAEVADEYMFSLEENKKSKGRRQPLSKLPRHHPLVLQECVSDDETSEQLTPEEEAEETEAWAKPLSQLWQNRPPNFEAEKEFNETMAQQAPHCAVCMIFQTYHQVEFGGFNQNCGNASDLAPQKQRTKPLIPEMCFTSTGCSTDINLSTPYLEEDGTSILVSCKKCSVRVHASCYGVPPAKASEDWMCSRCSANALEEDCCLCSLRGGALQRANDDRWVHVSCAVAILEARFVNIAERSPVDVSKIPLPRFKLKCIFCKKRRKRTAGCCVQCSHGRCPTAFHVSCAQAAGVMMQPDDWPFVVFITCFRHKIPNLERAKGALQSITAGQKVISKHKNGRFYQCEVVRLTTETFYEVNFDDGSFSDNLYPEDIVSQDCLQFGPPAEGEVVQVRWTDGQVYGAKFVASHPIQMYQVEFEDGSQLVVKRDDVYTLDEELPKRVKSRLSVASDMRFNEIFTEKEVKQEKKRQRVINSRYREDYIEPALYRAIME
% is set by controls: 0 for no effect and ±100 for the full control effect; potency is the fitted concentration of half-maximal effect; tags give direction and shape of the fitted curve.
Note: nearly all actives have a fitted effect of over 50% in size.

Row | SMILES | Potency | activity change, negative = inhibition
1 | CCCc1c2c(cc3c(=O)cc(C(=O)OCC)oc13)CCCC2 | inconclusive: 15.8 µM [inhibitor, partial curve] | 
2 | COc1cc2nc(CN3CCN(S(=O)(=O)c4cc(C)ccc4C)CC3)[nH]c(=O)c2cc1OC | inconclusive: 15.8 µM [inhibitor, partial curve] | 
3 | CCOC(=O)C1=C(CN2CCCCC2)NC(=O)NC1c1ccc(OC)cc1 (centres undefined) |  | inactive: -4.95%
4 | CCS(=O)(=O)N1CCN(Cc2ccc([N+](=O)[O-])cc2)CC1 | active: 5.62 µM | 
5 | Cc1ccc2nc(N(Cc3cccnc3)C(=O)CCc3ccccc3)sc2c1 |  | inactive: 4.22%
6 | N#C/C(=N\Nc1ccc(S(=O)(=O)N2CCc3ccccc32)cc1)C(N)=S | inconclusive: 11.2 µM [inhibitor, full curve] | 
7 | Nc1ccc2nc(CCCCc3nc4ccccc4[nH]3)[nH]c2c1 | inconclusive: 50.1 µM [inhibitor, partial curve] | 
8 | CN(Cc1cccs1)C(=O)COc1cccc2c1OC(C)(C)C2 |  | inactive: 0%
9 | O=C(Nc1cccc(NC(=O)c2ccc(Br)o2)n1)c1ccc(Br)o1 | inconclusive: 11.2 µM [inhibitor, partial curve] | 
10 | Cc1ccc(S(=O)(=O)Nc2ccccc2-c2ccccc2)cc1 |  | inactive: 16.7%
11 | O=C(NC1CCN(Cc2ccccc2)CC1)c1cccc(NS(=O)(=O)c2ccc(Br)cc2)c1 | inconclusive: 56.2 µM [inhibitor, partial curve] | 
12 | CN1C(=O)NC2(O)C(=O)c3ccccc3C12O (centres undefined) | inconclusive: 3.55 µM [inhibitor, single point] | 
13 | Cc1nc(NC(=O)c2ccco2)sc1-c1csc(Nc2ccc(Cl)cc2)n1 | inconclusive: 89.1 µM [inhibitor, partial curve, poor fit] | 
14 | CCCCC1C(=O)N(c2ccccc2)N(c2ccc(O)cc2)C1=O (centres undefined) | active: 56.2 µM | 
15 | CCc1nn2c(=O)cc(COc3ccc(/C=C4\C(=N)N5N=C(C)SC5=NC4=O)cc3)nc2s1 | active: 56.2 µM | 
16 | O=C(COC(=O)c1ccc2[nH]c3c(c2c1)CCCC3)Nc1ccccc1 | inconclusive: 11.2 µM [inhibitor, partial curve] | 
17 | O=C(CN1CCN(Cc2ccccc2Cl)CC1)N/N=C/C=C/c1ccccc1[N+](=O)[O-] | inconclusive: 39.8 µM [inhibitor, single point] | 
18 | Oc1ccccc1C1=NOC(O)(C(F)F)C1 (centres undefined) | inconclusive: 22.4 µM [inhibitor, partial curve] | 
19 | COc1ccc(OC)c(NC(=O)C2CCN(Cc3cnn(-c4ccccc4)c3-n3cccc3)CC2)c1 | active: 50.1 µM | 
20 | Cc1ccc(-c2cn3c(n2)sc2cc(C(=O)NC4CCCCCC4)ccc23)c(C)c1 |  | inactive: 1.64%
21 | COc1ccc(C(=O)Cn2c(C)nc([N+](=O)[O-])c2Br)cc1 |  | inactive: -10.5%
22 | CCOCCc1nnc(NC(=O)CSc2ccccc2)s1 | inconclusive: 89.1 µM [inhibitor, partial curve] | 
23 | O=C(CSc1ccc(Br)cc1)N1CCOCC1 | inconclusive: 89.1 µM [inhibitor, single point] | 

Row | SMILES | Potency | activity change, negative = inhibition
24 | Cc1cc(C)cc(C(=O)NCC(=O)OCC(=O)N(C)c2ccccc2)c1 | active: 50.1 µM | 
25 | Cc1cc(C)c(C)c(S(=O)(=O)N2CCN(c3ccc(O)cc3)CC2)c1C | inconclusive: 20 µM [inhibitor, full curve] | 
26 | COc1cc(/C=N\NC(=O)CC#N)ccc1OC/C=C/c1ccccc1 | active: 79.4 µM | 
27 | COc1cc(/C=C2\SC(N)=NC2=O)ccc1OCC(=O)Nc1ccc(C)cc1 |  | inactive: -18.8%
28 | COc1ccc(N(C(=O)c2cccnc2)S(=O)(=O)c2cccc([N+](=O)[O-])c2)cc1 | inconclusive: 100 µM [inhibitor, partial curve, poor fit] | 
29 | CN1CCc2c(sc(N)c2C(N)=O)C1 | inconclusive: 14.1 µM [inhibitor, full curve] | 
30 | O=[N+]([O-])c1ccc(OCCN2CCNCC2)cc1 | active: 25.1 µM | 
31 | COc1ccc(Cl)cc1NC(=O)CN(C1CCCCC1)S(C)(=O)=O | inconclusive: 39.8 µM [inhibitor, single point] | 
32 | C=CCn1c(C)cc(C(=O)COC(=O)c2cncc(Br)c2)c1C | inconclusive: 20 µM [inhibitor, partial curve] | 
33 | O=C(NCc1ccc2c(c1)OCO2)c1ccc(-c2ccc(Cl)cc2)o1 | inconclusive: 39.8 µM [inhibitor, partial curve] | 
34 | Cc1cccc2sc(N(CCN(C)C)C(=O)c3ccc4ccccc4c3)nc12 | inconclusive: 28.2 µM [inhibitor, partial curve] | 
35 | Cc1nc2c(ccc3nc(NC(=O)c4ccc5c(c4)OCCO5)sc32)s1 | inconclusive: 35.5 µM [inhibitor, partial curve, poor fit] and inconclusive: 56.2 µM [inhibitor, partial curve] | 
36 | CCCC(c1nnnn1CCOC)N1CCN(c2nc3ccccc3s2)CC1 (centres undefined) | active: 12.6 µM | 
37 | Cc1cc(/C=N/NC(=O)C(=O)N2CCCC2)c(C)n1-c1cccc(Br)c1 | inconclusive: 79.4 µM [inhibitor, single point] | 
38 | COc1ccc(-c2nnc(SCC(=O)NNC(=O)Cc3ccccc3)n2C)cc1OC | inconclusive: 28.2 µM [inhibitor, single point] | 
39 | COC(=O)c1c(C)nc2ccccc2c1-c1ccccc1 |  | inactive: 3.73%
40 | COc1ccc(C(=O)NCC(c2cccs2)S(=O)(=O)c2cccs2)cc1 (centres undefined) |  | inactive: -4.87%
41 | Cc1cc(O)c(/C=N/Nc2ccccc2Cl)c(=O)o1 | active: 56.2 µM | 
42 | COc1ccccc1C(=O)N/C(=C/c1ccco1)C(=O)Nc1ccc(C(=O)O)cc1 | active: 25.1 µM | 
43 | CC1=Nc2ccc(Br)cc2C(c2ccccc2)N1CC(=O)O (centres undefined) | inconclusive: 14.1 µM [inhibitor, full curve, poor fit] | 
44 | Cc1ccc(C(=O)COC(=O)c2cccc(NC(=O)c3ccc([N+](=O)[O-])cc3[N+](=O)[O-])c2)cc1 | inconclusive: 12.6 µM [inhibitor, partial curve] | 
45 | CCCN(C(=O)Cn1nc(Cc2cccnc2)c2ccccc2c1=O)c1ccc(C(C)C)cc1 | inconclusive: 22.4 µM [inhibitor, partial curve] | 
46 | COc1nc(-c2ccccc2)ccc1-c1noc(COc2ccccc2)n1 | inconclusive: 56.2 µM [inhibitor, partial curve] | 

Row | SMILES | Potency | activity change, negative = inhibition
47 | CCCCN(Cc1ccco1)C(=O)C1CCCN(c2ncnc3c2nc2n3CCCCC2)C1 (centres undefined) | inconclusive: 89.1 µM [inhibitor, single point] | 
48 | O=C(NNS(=O)(=O)c1ccccc1C(F)(F)F)c1cc2ncc(C(F)(F)F)cc2s1 | inconclusive: 2.51 µM [inhibitor, full curve, poor fit] | 
49 | Cn1ccnc1SCC(=O)c1cc2ccccc2o1 | inconclusive: 56.2 µM [inhibitor, partial curve] | 
50 | Cc1ccc(S(=O)(=O)NNC(=O)C2CC=CCC2C(=O)O)cc1 (centres undefined) |  | inactive: -26.1%
51 | CCOC(=O)Cc1c(C)nc2c(C#N)c(C)nn2c1C | inconclusive: 39.8 µM [inhibitor, single point] | 
52 | O=C(O)CSc1nc2ccc(Cl)cc2[nH]1 | inconclusive: 63.1 µM [inhibitor, partial curve, poor fit] | 
53 | CCN(C(=O)C(C)N1C(=O)/C(=C/c2ccco2)SC1=S)C1CCS(=O)(=O)C1 (centres undefined) | active: 56.2 µM | 
54 | COc1cccc2c(=O)c(C(=O)NCCc3ccccc3)c[nH]c12 |  | inactive: -21.8%
55 | COc1ccc(-c2sc3cc(OC)ccc3c2-c2ccc(OCCN3CCOCC3)cc2)cc1 | inconclusive: 50.1 µM [inhibitor, partial curve] | 
56 | CCn1nc([N+](=O)[O-])c(C(C#N)c2nc3ccccc3n2C)c(Cl)c1=O (centres undefined) | inconclusive: 22.4 µM [inhibitor, partial curve] | 
57 | CCCOC1CCCN(C(=O)c2ccc(OC3CCN(Cc4ccccn4)CC3)cc2)C1 (centres undefined) |  | inactive: -13%
58 | Nc1cc(-c2ccc(Br)cc2)nn1S(=O)(=O)c1cccc2nsnc12 | inconclusive: 25.1 µM [inhibitor, full curve] | 
59 | COc1ccc2c(CNCCc3ccccc3OC)c(C(=O)O)n(Cc3ccc(F)cc3Cl)c2c1 | inconclusive: 28.2 µM [inhibitor, full curve] | 
60 | O=S(=O)(NC(=S)c1ccccc1)c1ccc(F)cc1 |  | inactive: -18.5%
61 | O=C(Cn1cccc1C(=O)c1ccccc1)NCc1cccc(Cl)c1 | inconclusive: 15.8 µM [inhibitor, full curve, poor fit] | 
62 | COc1ccc(CNC(=S)N/N=C(\C)c2ccc(OC)cc2)cc1 | inconclusive: 56.2 µM [inhibitor, partial curve] | 
63 | CCc1cc2c(=O)c(-c3nc4ccccc4n3C)c(COCC(=O)O)oc2cc1O | inconclusive: 89.1 µM [inhibitor, single point] | 
64 | CCOc1cccc(=O)c2c(C)n(CC(=O)c3ccccc3)c(C)c12 |  | inactive: -27.1%
65 | CCc1cc[n+](C2=C([O-])c3ccccc3C(=O)/C2=N\S(=O)(=O)c2cccs2)cc1 | active: 79.4 µM | 
66 | O=C1CCCC2=C1C1(CCCCC1)N=C(Nc1nc3ccccc3o1)N2 | inconclusive: 89.1 µM [inhibitor, partial curve] and inconclusive: 70.8 µM [inhibitor, single point] | 
67 | O=C(c1ccccn1)N1N=C2/C(=C/c3ccccc3)CCCC2C1c1ccccc1 (centres undefined) | inconclusive: 56.2 µM [inhibitor, partial curve] | 
68 | CC(=O)Nc1ccc(S(=O)(=O)N/N=C/c2ccc(C)o2)cc1 |  | inactive: -23.7%
69 | O=C(NCCOc1ccccc1-c1ccccc1)c1ccco1 |  | inactive: -11%
